The full ranking holds about 33,000 sequences; the median of “E-score (-0.5 to 0.5)” is about -0.04, and the highest 2% start at about 0.36. This is one part of the list.
Each sequence was assayed against T1, Hmlalpha2 (UniProt P0CY09) (assay: PBM E-score (8-mer binding enrichment) (E-score (-0.5 to 0.5)); higher = stronger / more preferred TF binding; most listed sequences are background and not binding sites). Conditions: protein concentration: 200 nM; construct: GST-full length.
T1 sequence: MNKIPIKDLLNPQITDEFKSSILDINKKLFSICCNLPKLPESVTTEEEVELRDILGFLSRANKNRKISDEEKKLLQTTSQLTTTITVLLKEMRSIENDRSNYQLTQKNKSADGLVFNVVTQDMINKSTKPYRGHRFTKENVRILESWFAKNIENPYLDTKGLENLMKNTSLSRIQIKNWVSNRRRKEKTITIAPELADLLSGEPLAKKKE
In short: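 The E-score, a modified Wilcoxon-Mann-Whitney statistic, was computed by the Universal PBM Analysis Suite for every ungapped eight-base word pooled with its reverse complement. Scans behind it were normalised with masliner after bound GST-tagged yeast transcription factors were detected with fluorescent anti-GST. The proteins, at about 100-200 nM, had been applied to universal all-10-mer Agilent arrays made double-stranded by primer extension.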

Going from CAGCAGCA to ATCATATG, the “PBM E-score” value rises from -0.021 to 0.161.

Going from AAGTCTGG to AGTCTGCA, the “PBM E-score” value falls from 0.0378 to -0.221.

Going from GACTCGCA to GATAACGA, the “PBM E-score” value rises from -0.247 to 0.136.

Compared with AATGGCGG, CTCAAACC is higher in “PBM E-score” value: -0.388 for the first, -0.106 for the second.

Going from ATGCTGCG to GTACAGAC, the “PBM E-score” value rises from -0.126 to 0.17.

First: ACTAGTTG
Second: CGAGGGAG
The “PBM E-score” value of the first is higher: -0.0172 for the first, -0.302 for the second.

Compared with CCATCTTA, CACAGTAG is higher in “PBM E-score” value: -0.0983 for the first, -0.062 for the second.

First: AATCGGTC
Second: CCCTCTGC
The “PBM E-score” value of the first is higher: -0.081 for the first, -0.31 for the second.

Compared with CCGATACA, AGAGAGCC is lower in “PBM E-score” value: 0.0222 for the first, -0.275 for the second.

Compared with ATGTTTTA, AGCATCTG is lower in “PBM E-score” value: 0.422 for the first, -0.0361 for the second.

Going from TAACCTGA to ACGGACGA, the “PBM E-score” value rises from -0.0203 to 0.109.

First: TTGATCAA
Second: CCAAGCCC
The “PBM E-score” value of the first is higher: 0.0657 for the first, -0.0716 for the second.

Compared with CAGTAACA, GTTGCGGA is lower in “PBM E-score” value: 0.18 for the first, 0.0283 for the second.

Going from ACGAATCC to CTTTTATA, the “PBM E-score” value falls from 0.056 to 0.0262.

First: TACAACCA
Second: AGCTCTCC
The “PBM E-score” value of the first is higher: 0.226 for the first, -0.127 for the second.

First: CCGCAGTC
Second: CCTTACAG
The “PBM E-score” value of the first is higher: -0.0169 for the first, -0.106 for the second.

First: TACTTAGA
Second: AGAGGGCC
The “PBM E-score” value of the first is higher: 0.0639 for the first, -0.376 for the second.

First: AAATTGGG
Second: ATTCTACA
The “PBM E-score” value of the first is lower: -0.0745 for the first, 0.371 for the second.

Compared with ACCAGGCA, CTAACGCC is higher in “PBM E-score” value: -0.257 for the first, -0.18 for the second.

Going from GTGGGATA to ATCAGTGG, the “PBM E-score” value falls from -0.113 to -0.195.

First: ACATTGGG
Second: AGGGTTAT
The “PBM E-score” value of the first is lower: -0.0197 for the first, 0.0939 for the second.

Going from GCTATGTA to CCATGAGA, the “PBM E-score” value falls from 0.426 to -0.194.

First: AATATGGC
Second: AGTGCACA
The “PBM E-score” value of the first is lower: -0.059 for the first, -0.0563 for the second.

Going from CAAAATGC to AGCCTGTC, the “PBM E-score” value falls from 0.0763 to -0.0837.

First: CCGAGTTC
Second: TCCGGGCA
The “PBM E-score” value of the first is higher: 0.0247 for the first, -0.0623 for the second.

First: ATAGGGCC
Second: TCCTAGAA
The “PBM E-score” value of the first is lower: -0.247 for the first, -0.145 for the second.

Compared with CCTCGATC, CGATACGC is higher in “PBM E-score” value: -0.275 for the first, 0.0789 for the second.

Compared with GAAACCAA, AAGCGCGC is higher in “PBM E-score” value: 0.00698 for the first, 0.0629 for the second.

Going from ACGTGCTG to AGTGTTCA, the “PBM E-score” value falls from 0.166 to 0.00891.

Compared with CTGTGCCC, GAGGAGAC is lower in “PBM E-score” value: -0.114 for the first, -0.314 for the second.

Compared with ACCCGTCC, GCCTCCAC is lower in “PBM E-score” value: -0.266 for the first, -0.284 for the second.

Going from AGCTCGTG to ACCGATCC, the “PBM E-score” value falls from -0.014 to -0.28.

First: CTGCACGA
Second: AAACGTTT
The “PBM E-score” value of the first is higher: 0.0626 for the first, 0.0186 for the second.

Compared with CCTTTAGC, CATACCGC is higher in “PBM E-score” value: -0.0886 for the first, -0.0255 for the second.

First: GCATATGA
Second: AAACAGTA
The “PBM E-score” value of the first is lower: -0.00235 for the first, 0.135 for the second.

Compared with AAGAGTTA, AATGGGCG is lower in “PBM E-score” value: 0.104 for the first, -0.155 for the second.

First: CGAGCCTA
Second: TGGGGGAA
The “PBM E-score” value of the first is higher: 0.0145 for the first, -0.371 for the second.

Going from AATGGGGA to GTCACCAA, the “PBM E-score” value falls from -0.156 to -0.167.

Compared with ACGCGCTG, CCACGGTA is lower in “PBM E-score” value: 0.245 for the first, -0.0423 for the second.

Going from GACACAAC to AGAGCGCG, the “PBM E-score” value falls from 0.264 to -0.0468.

Going from CCCTATTA to ACAGGGTG, the “PBM E-score” value rises from -0.051 to -0.00085.

First: ATCTCAAC
Second: CAGGCCAA
The “PBM E-score” value of the first is higher: 0.233 for the first, -0.177 for the second.

Compared with AGTTAACT, CATGTCAA is higher in “PBM E-score” value: 0.129 for the first, 0.44 for the second.

First: CCAAAGCG
Second: ATATTGGG
The “PBM E-score” value of the first is higher: -0.1 for the first, -0.261 for the second.

Compared with GAATCAGC, AATGACCC is lower in “PBM E-score” value: -0.129 for the first, -0.282 for the second.

Going from AATACGCG to CCCCTATA, the “PBM E-score” value falls from 0.399 to -0.179.

Compared with TATCATCA, CATCGAAA is lower in “PBM E-score” value: 0.12 for the first, -0.12 for the second.

Compared with ACTCGATA, AATGTCGG is lower in “PBM E-score” value: 0.163 for the first, 0.124 for the second.

Compared with CCGTGTCG, ACAGAGCC is lower in “PBM E-score” value: 0.233 for the first, -0.085 for the second.

Going from GTCAACTA to GGCGTTAA, the “PBM E-score” value rises from 0.1 to 0.216.

First: ACAGCGGT
Second: ATCACGGA
The “PBM E-score” value of the first is higher: 0.0344 for the first, -0.189 for the second.

Compared with CTACGTCA, CACGTTAG is higher in “PBM E-score” value: 0.0853 for the first, 0.113 for the second.

First: CACCAATC
Second: CTGGCAGA
The “PBM E-score” value of the first is lower: -0.188 for the first, -0.162 for the second.

First: ACGAGTCT
Second: GCCAGACC
The “PBM E-score” value of the first is higher: -0.105 for the first, -0.278 for the second.

Compared with CTACGGAG, CGGGATAG is lower in “PBM E-score” value: -0.247 for the first, -0.302 for the second.

First: CAAGCTAC
Second: AGGGCTTG
The “PBM E-score” value of the first is lower: 0.103 for the first, 0.168 for the second.

First: ATGCGCCC
Second: AGCTGGAG
The “PBM E-score” value of the first is higher: -0.0558 for the first, -0.147 for the second.

Going from ATCGTTTA to CGTTGGGA, the “PBM E-score” value falls from 0.218 to -0.0124.

First: ATGAAGGG
Second: GACAGTAA
The “PBM E-score” value of the first is lower: -0.201 for the first, 0.0134 for the second.

Going from TGAATAAA to ACAATTCC, the “PBM E-score” value falls from 0.245 to -0.00895.

Compared with ACAACGAA, ACCACTGG is lower in “PBM E-score” value: 0.129 for the first, -0.0198 for the second.

Going from CGCCGAAG to ACTGCAAT, the “PBM E-score” value rises from -0.238 to 0.00745.

Compared with GCCCAGGC, AGCAGCAG is higher in “PBM E-score” value: -0.262 for the first, -0.0472 for the second.

Compared with GACGCGCC, ACTCGCGA is lower in “PBM E-score” value: 0.0148 for the first, -0.0234 for the second.

Going from CGACCACA to GTGGTATA, the “PBM E-score” value rises from -0.00786 to 0.0843.

First: CAAAATGA
Second: ATTATGGC
The “PBM E-score” value of the first is higher: 0.0816 for the first, 0.013 for the second.

First: AACATAAT
Second: CCTTATCC
The “PBM E-score” value of the first is higher: 0.287 for the first, -0.281 for the second.

Compared with ACGAGCAA, CCCCCTGA is lower in “PBM E-score” value: -0.105 for the first, -0.222 for the second.

First: AGGGGGCA
Second: AAGAAACT
The “PBM E-score” value of the first is lower: -0.275 for the first, 0.0109 for the second.

Going from CGATCCCA to ATCTGTTA, the “PBM E-score” value rises from -0.262 to 0.23.

First: AGATCCTC
Second: CAATTTTC
The “PBM E-score” value of the first is lower: -0.235 for the first, -0.114 for the second.

Going from CTATCGTA to ACCATGAG, the “PBM E-score” value falls from 0.162 to -0.24.

Going from CAATGAAC to ACACCACG, the “PBM E-score” value rises from -0.00588 to 0.0675.

First: AGAGCTGC
Second: GATAATCC
The “PBM E-score” value of the first is lower: -0.16 for the first, -0.0865 for the second.

Compared with AGTATAGC, CCTGCACG is higher in “PBM E-score” value: -0.0549 for the first, 0.134 for the second.

Compared with AAGGTAGC, ATGCTACA is higher in “PBM E-score” value: -0.0625 for the first, 0.173 for the second.

Compared with CTATTGAC, CGTAAGAA is higher in “PBM E-score” value: -0.0398 for the first, 0.106 for the second.

Compared with ATAAGCCA, CGCCCACA is lower in “PBM E-score” value: 0.0197 for the first, -0.0652 for the second.

First: ACAGGTGG
Second: AGCGTTCG
The “PBM E-score” value of the first is higher: -0.0993 for the first, -0.167 for the second.

First: ATAGGGCG
Second: TAAAGGAA
The “PBM E-score” value of the first is lower: -0.23 for the first, 0.132 for the second.

First: CGTAGACC
Second: AGTGCGTC
The “PBM E-score” value of the first is higher: -0.105 for the first, -0.188 for the second.

First: CGCGTACA
Second: GACCATAA
The “PBM E-score” value of the first is higher: 0.336 for the first, -0.116 for the second.

First: AACCACGC
Second: ACAGTTAC
The “PBM E-score” value of the first is lower: 0.0619 for the first, 0.225 for the second.

Going from CTATGGTA to CGGTCGGA, the “PBM E-score” value rises from -0.144 to -0.0802.

First: ACAATATC
Second: GATTGTCC
The “PBM E-score” value of the first is higher: 0.12 for the first, -0.116 for the second.

Compared with GCTCACGA, CCGCCGGA is lower in “PBM E-score” value: -0.244 for the first, -0.265 for the second.

Source: the supplement of paper PMC3334620
